This is an account of results in article PMC4336329 (PLoS ONE, 2015).

SMILES strings stand for the structures. The campaign covered roughly 310,000 compounds. About 14,000 (4.5%) showed an effect of 50% or more. The effect is printed as a negative number. This is one part of the list.
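Also: peak tail current of the secondary pulse compared with the same well before compound.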

The target in this test is human ether-à-go-go-related gene (hERG) potassium channel (human, UniProt Q12809). Kind of test: primary screen, population patch clamp on CHO cells stably expressing hERG.
human ether-à-go-go-related gene (hERG) potassium channel, sequence (Q12809 whole entry, looked up): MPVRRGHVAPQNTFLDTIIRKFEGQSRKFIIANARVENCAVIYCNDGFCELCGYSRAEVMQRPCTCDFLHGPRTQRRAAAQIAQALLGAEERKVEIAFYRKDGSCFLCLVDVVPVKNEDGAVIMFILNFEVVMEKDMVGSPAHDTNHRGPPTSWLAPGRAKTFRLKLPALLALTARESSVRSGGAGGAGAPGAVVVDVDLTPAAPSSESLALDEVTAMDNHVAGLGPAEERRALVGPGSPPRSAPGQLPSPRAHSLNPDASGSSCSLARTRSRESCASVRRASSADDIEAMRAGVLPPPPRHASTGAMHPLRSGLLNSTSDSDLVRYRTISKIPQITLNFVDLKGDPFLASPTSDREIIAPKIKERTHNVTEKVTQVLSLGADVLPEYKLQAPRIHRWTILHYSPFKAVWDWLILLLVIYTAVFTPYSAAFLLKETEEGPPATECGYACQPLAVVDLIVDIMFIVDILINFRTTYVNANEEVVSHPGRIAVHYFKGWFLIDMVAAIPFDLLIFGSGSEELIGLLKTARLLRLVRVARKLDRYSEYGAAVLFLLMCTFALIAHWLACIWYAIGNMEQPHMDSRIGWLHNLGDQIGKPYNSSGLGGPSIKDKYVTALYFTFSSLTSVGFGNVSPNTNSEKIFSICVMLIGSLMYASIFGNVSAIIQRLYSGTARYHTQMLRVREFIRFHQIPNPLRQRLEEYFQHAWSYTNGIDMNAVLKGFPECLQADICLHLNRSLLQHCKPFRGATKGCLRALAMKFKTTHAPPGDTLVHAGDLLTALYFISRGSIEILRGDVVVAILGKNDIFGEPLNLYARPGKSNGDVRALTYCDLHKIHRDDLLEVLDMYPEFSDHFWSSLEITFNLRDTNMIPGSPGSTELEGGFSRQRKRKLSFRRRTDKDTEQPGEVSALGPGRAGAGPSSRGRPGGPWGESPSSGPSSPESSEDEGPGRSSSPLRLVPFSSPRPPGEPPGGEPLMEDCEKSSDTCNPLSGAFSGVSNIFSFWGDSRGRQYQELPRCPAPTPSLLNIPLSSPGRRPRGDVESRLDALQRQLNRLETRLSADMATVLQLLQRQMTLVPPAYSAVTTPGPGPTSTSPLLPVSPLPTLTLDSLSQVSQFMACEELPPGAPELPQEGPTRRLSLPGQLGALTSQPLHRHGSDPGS
Regarding `COC(=O)c1ccc(=O)n(Cc2ccc3c(c2)OCO3)c1`, the “hERG current change (%, negative = inhibition) at 10uM” value is on record as 7.31%. The same measure for `COc1cccc(OCc2nnc(SC)n2C)c1`: -7.06%; for `NC(=O)N1c2ccccc2CC(=O)c2ccccc21`: -1.16%; for `CCOC(=O)c1sc(NC(=S)NC(=O)c2cccc(Cl)c2)c(C(=O)OCC)c1C`: -5.05%. Next, `Cn1cc(CCCC(=O)NCc2ccccc2)c2ccccc21`: -3.54%; `O=C(Nc1ccc(OC(F)(F)F)cc1)C1CCCN(S(=O)(=O)c2cnc[nH]2)C1` (stereo not drawn): 10.4%; `COc1ccc(CC(=O)OCn2nnc3ccccc3c2=O)cc1`: -1.18%. Next, `CC(=O)N1N=C(c2ccncc2)CC1c1ccccc1O` (stereo not drawn): 11.7%; `CSCCC(NC(N)=O)C(=O)Nc1ccc(F)c(Cl)c1` (stereo not drawn): -6.51%; `S=C(c1ccc(-c2ccc(Br)cc2)o1)N1CCCCC1`: 17%. With `O=C(Nc1ccc(C2CC2(Cl)Cl)cc1)c1ccccc1Br` (stereo not drawn), the “hERG current change (%, negative = inhibition) at 10uM” value is on record as 6.07%. Next, `COc1ccc(OC)c(N(CC(=O)NCCSCc2ccco2)S(=O)(=O)c2ccccc2)c1`: -69.2%; `CCc1cccc(C)c1NC(=O)C1CN(S(=O)(=O)c2ccccc2)CCN1S(=O)(=O)c1ccccc1` (stereo not drawn): -13%.

On to `O=C(N/N=C/c1ccco1)c1cccc(N2Cc3ccccc3C2)c1`, for which the “hERG current change (%, negative = inhibition) at 10uM” value amounted to 2.18%.

Consider `O=C(C1CC1(c1ccccc1)c1ccccc1)N1CCOCC1` (stereo not drawn), for which the “hERG current change (%, negative = inhibition) at 10uM” value turned out to be 1.5%.

For the compound `Cc1noc(C)c1C(=O)N1CCc2ccccc2C1`, the “hERG current change (%, negative = inhibition) at 10uM” value came out at 12.2%. The same measure for `COc1cccc(C2c3[nH]c4ccccc4c3CCN2Cc2cccn2-c2ncccn2)c1` (stereo not drawn): -76.1%; for `CSCCC(NC(=O)c1ccccc1Cl)C(=O)N1CCCCC1` (stereo not drawn): 4.79%. The same measure for `Cc1cccc(OCc2nnc(SCC(=O)N(c3ccccc3)C3CCS(=O)(=O)C3)o2)c1` (stereo not drawn): -48.7%.

With `CCN(CC)C(=O)N(CC)Cc1ccccc1`, the “hERG current change (%, negative = inhibition) at 10uM” value is 8.76%. Next, `COc1ccccc1/C=N/N1CCN(c2ccc(Cl)cc2)CC1`: 23.1%.

Consider `CCCOc1ccc(C(=O)OCCN2CCCCC2)c(O)c1.Cl`, for which the “hERG current change (%, negative = inhibition) at 10uM” value was -58.7%. The same measure for `CC(NC(=O)c1cccs1)C(=O)NC1=NCCS1` (stereo not drawn): 1.3%; for `CC1CCc2nc3ccc(S(=O)(=O)N4CCC(C(=O)N5CCCCC5)CC4)cc3c(C(=O)O)c2C1` (stereo not drawn): 10%. Next, `COc1ccc(C2=NOC3(CC(=O)N(c4ccc(F)cc4)C3=O)C2)cc1` (stereo not drawn): 15.5%.

Regarding `O=C(NCc1ccccn1)c1cn(-c2ccccc2)nc1-c1ccc(Cl)cc1`, the “hERG current change (%, negative = inhibition) at 10uM” value is given as -1.67%.

Take `CCOC(=O)c1nc(N)sc1C(=O)OCC`: the “hERG current change (%, negative = inhibition) at 10uM” value amounted to 13.6%. As for `COc1ccc(NC(=S)Nc2ccc(OCc3ccccc3)cc2)cc1OC`, the “hERG current change (%, negative = inhibition) at 10uM” value is on record as 9.06%. On to `COc1ccc(OC)c(NC(=O)[C@@]2(CC(=O)O)CC(/C=C/c3ccccc3)=NO2)c1`, for which the “hERG current change (%, negative = inhibition) at 10uM” value amounted to 22.1%. Next, `CC(C)N(CCn1c(=S)[nH]c2ccccc2c1=O)C(C)C`: -40%; `COc1cccc(Nc2ncnc3c2cnn3-c2cccc(C)c2)c1`: 1.03%; `CCC(C(=O)OC(C)C)c1ccc2ccccc2c1` (stereo not drawn): 7.86%. The same measure for `COc1ccc(Nc2nc(-c3ccccc3)cs2)cc1`: 1.45%; for `COc1ccc(C(=O)OCCNC(=O)c2c(Cl)nc3ccccn23)cc1.Cl`: -6.58%; for `CC(C)[C@]1(c2ccccc2)ON(c2ccccc2C(F)(F)F)C1=O`: 1.77%. Next, `Cc1cccc(NC(=O)Cn2cnc3ccccc3c2=O)c1C`: -5%; `COc1ccc(C(NC(=O)c2c(F)c(F)c(F)c(F)c2F)c2ccccc2)cc1` (stereo not drawn): 14.2%. With `Cc1nnc(NC(=O)C2(c3ccccc3)CCOCC2)s1`, the “hERG current change (%, negative = inhibition) at 10uM” value stood at 16.9%. The same measure for `Cc1ccc(C(=O)O)cc1NC(=O)CSc1ncnc2sc3c(c12)CCC3`: -7.04%; for `O=C(c1cnccn1)N1CCc2c([nH]c3ccccc23)C1c1cccc(Cl)c1` (stereo not drawn): -33.6%; for `CCOCCCNS(=O)(=O)c1ccc(NC(=O)C2CC(=O)N(c3ccc(C)cc3)C2)cc1` (stereo not drawn): 0.687%.

For `C/C(CC(=O)Nc1cc(C)ccn1)=N\NC(=O)C(=O)Nc1cccc(C)c1`, the “hERG current change (%, negative = inhibition) at 10uM” value was -9.79%.

As for `COc1ccc(/C=C(\NC(=O)c2cccs2)C(=O)NN)cc1OC`, the “hERG current change (%, negative = inhibition) at 10uM” value came to 11.3%. Consider `CC1CN(C(=O)C(C)Sc2nnnn2C)CC(C)O1` (stereo not drawn), for which the “hERG current change (%, negative = inhibition) at 10uM” value is 15.9%. The same measure for `O=[N+]([O-])c1ccc(S(=O)(=O)NCCc2ccncc2)cc1`: -12.7%. The same measure for `COc1ccc(-c2oc3ccc(-c4cc(OC)c(OC)c(OC)c4)cc3c2-c2ccc(OC)nc2)cc1`: 14%; for `COc1cc(OC)cc(C(=O)N2CCC(N3CCN(c4ccccc4)CC3)CC2)c1`: -26.9%.

With `CCOc1ccccc1/C=N/n1c(COc2ccccc2)n[nH]c1=S`, the “hERG current change (%, negative = inhibition) at 10uM” value is 11.6%.

As to `COc1ccc(CN(C)C(=O)c2cccc(NS(=O)(=O)c3ccccc3)c2)cc1F`, the “hERG current change (%, negative = inhibition) at 10uM” value is given as -17.8%.

For `COc1cccc(CCNC(=O)c2cc(COc3c(F)cccc3F)on2)c1`, the “hERG current change (%, negative = inhibition) at 10uM” value is given as -44%. For the compound `CCN(CC)CCCNC(=O)c1ccc(S(=O)(=O)Nc2ccc(C)c(C)c2)cc1`, the “hERG current change (%, negative = inhibition) at 10uM” value is -19.8%.

In the case of `O=C(NCCO)c1cccc(Nc2nc(-c3ccccc3)c3cc(Cl)ccc3n2)c1`, the “hERG current change (%, negative = inhibition) at 10uM” value was -6.4%. In the case of `Cc1ccc(S(=O)(=O)N2CC(O)CC2C(=O)O)cc1` (stereo not drawn), the “hERG current change (%, negative = inhibition) at 10uM” value was 20.7%. The same measure for `CC1CCN(CCc2nc3cc(NC(=O)COc4ccc([N+](=O)[O-])cc4)ccc3n2C)CC1`: -68.4%.

For `O=C(O/N=C1/CCSc2ccccc21)c1ccc(F)cc1`, the “hERG current change (%, negative = inhibition) at 10uM” value was 19.8%. The same measure for `CC(C)c1ccc(/C=N/NC(=O)c2nnn(-c3nonc3N)c2CN(C)C2CCCCC2)cc1`: 14.1%; for `Cc1cccc2sc(NS(=O)(=O)c3ccccc3)nc12`: -4.36%.

As to `CCn1nccc1C(=O)Nc1nccs1`, the “hERG current change (%, negative = inhibition) at 10uM” value is 6.12%. Next, `COc1cc(C(=O)NC(=S)Nc2cccc3nc(C)ccc23)cc(OC)c1OC`: 13.7%. Next, `CCn1c(SC(C)C)nnc1C1CCN(S(=O)(=O)c2ccc(OC)cc2)CC1`: -20.6%; `C#CCOc1nc(C)cc(C)c1S(=O)(=O)c1ccccc1C`: 9.66%.

Take `Nn1c(SCC(=O)Nc2ccc3c(c2)OCCO3)nnc1-c1ccccn1`: the “hERG current change (%, negative = inhibition) at 10uM” value is -11.7%.

For `C/C(=C\C(=O)O)CC(=O)O`, the “hERG current change (%, negative = inhibition) at 10uM” value is 0.324%. Next, `Oc1cccc2cc3cccc(O)c3c(O)c12`: 5.24%. Next, `CCOC(=O)N1CCN(C(=O)CSCc2nc(-c3ccccc3C)oc2C)CC1`: -21.2%. The same measure for `O=C(c1ccoc1)N1CCC2(CC1)Oc1ccc(Cl)cc1C(=O)C21CC(c2ccc(Cl)cc2)=NO1` (stereo not drawn): 19.8%. With `CCC1CCCCN1CCCNC(=O)CSc1nc2nc(C)c(Cc3ccccc3Cl)c(C)n2n1` (stereo not drawn), the “hERG current change (%, negative = inhibition) at 10uM” value is on record as -18.1%. `O=Cc1c[nH]c2ccc(C(=O)c3ccccc3)cc12`: the “hERG current change (%, negative = inhibition) at 10uM” value is 3.97%. The same measure for `O=c1c(CO)cc(CO)cc(CO)c1O`: 8.3%; for `CC(Oc1cccc(Cl)c1)C(=O)Nc1ccncc1` (stereo not drawn): 3.81%.

On to `CCOC(=O)CCn1nc(-c2ccccc2)cc1N`, for which the “hERG current change (%, negative = inhibition) at 10uM” value is given as 4.26%.

In the case of `CNC(=O)N/N=C(\N)c1ccccn1`, the “hERG current change (%, negative = inhibition) at 10uM” value was 7.1%. Next, `O=C(Nc1ccccc1)c1ccc(CSc2ccccn2)cc1`: -6.57%; `O=C(Nc1ccccc1C(=O)Nc1ccccc1C(=O)NCc1ccco1)c1ccco1`: 3.18%.

Take `N#CCC(=O)NN=C1CCCCCCCCCCC1`: the “hERG current change (%, negative = inhibition) at 10uM” value was 6.59%. Next, `O=C1Nc2ccccc2N(O)N1c1ccc(Cl)cc1`: 19.7%; `O=c1c2ccccc2nc(-c2ccccc2)n1-c1cccnc1`: -11.1%. Next, `COc1cccc(CNC2CCCC2)c1`: 2.13%. Next, `O=C(NCc1ccc2c(c1)OCO2)c1ccc(CSCc2cccc(Cl)c2)o1`: -11.1%. In the case of `CC(C)CC(NC(=O)CCC(=O)OCC(=O)[C@@]1(O)CCC2[C@@H]3CCC4=CC(=O)C=C[C@]4(C)C3[C@@H](O)C[C@@]21C)C(=O)O` (stereo partly drawn), the “hERG current change (%, negative = inhibition) at 10uM” value turned out to be 0.23%. The same measure for `Cc1c(OC(C)C(=O)O)ccc2c3c(c(=O)oc12)CCCC3` (stereo not drawn): 11.1%; for `O=[N+]([O-])c1ccc(N/N=C/c2cn(Cc3ccc(F)cc3)c3ccccc23)nc1`: 8.54%.

Consider `CC(C)Oc1ccc(Cn2c(-c3ccco3)n[nH]c2=S)cc1`, for which the “hERG current change (%, negative = inhibition) at 10uM” value amounted to 9.79%. The same measure for `O=c1c2c3c(sc2nc2n1CCC2)CCCCC3`: -5.34%; for `COC(=O)C1=C(c2ccc3ccccc3c2)C[C@@H]2CC[C@H]1N2C(=O)NC1CCCCC1`: -5.74%; for `O=C1C2C3C=CC(CC3)C2C(=O)N1c1ccc([N+](=O)[O-])cc1` (stereo not drawn): 12.5%. Turning to `CCOC(=O)CSc1nc2ccc(C)cc2n2cnnc12`, the “hERG current change (%, negative = inhibition) at 10uM” value is reported as -4.06%. The same measure for `CCOC(=O)N1CCN(S(=O)(=O)c2ccc(C(=O)NNc3nc4cc(C)cc(C)c4s3)cc2)CC1`: 19.5%; for `O=C1c2ccccc2NC2(CCCC2)N1N=C1CCCC1`: -12.2%; for `Cc1nn(C)c(C)c1S(=O)(=O)N1CCC(C(=O)NC2CCCCC2)CC1`: 10.2%.
